The list shows a part of the results. The list includes weakly bound sequences.
These sequences were tested against MaxL homodimer (UniProt P61244) (assay: universal protein-binding microarray (PBM)). Details: PBS-based mixture, 10 nM His-tagged protein dimer, 2% milk, 200 ng/uL BSA, 50 ng/uL salmon testes DNA, 0.02% TX-100; detection with Alexa 488 anti-His …; high values mean tight binding; most listed sequences are background and not binding sites; double strand, one strand shown.
Chain of UniProt P61244 (P61244 whole entry): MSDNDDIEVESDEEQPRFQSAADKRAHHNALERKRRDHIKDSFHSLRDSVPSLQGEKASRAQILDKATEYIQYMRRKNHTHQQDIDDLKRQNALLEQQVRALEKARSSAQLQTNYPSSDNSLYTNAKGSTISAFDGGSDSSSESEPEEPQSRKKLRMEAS

Row | Sequence | binding signal (normalized occupancy)
1 | CTCCCCGC | 0.0755
2 | ACTACCCA | 0.0805
3 | AGGAGGGG | 0.076
4 | ATCGGCAT | 0.0843
5 | CCGCTAAG | 0.0719
6 | CTTACGCA | 0.0765
7 | AAGCCGGT | 0.0689
8 | AGCAGACA | 0.0774
9 | GAGTTGCC | 0.0729
10 | CACCTTCG | 0.0726
11 | CAAGAATA | 0.0754
12 | CCCTCAGA | 0.0767
13 | ACCCCACA | 0.0881
14 | CCTCCGGC | 0.0686
15 | TAAATACA | 0.083
16 | GCGGTGAC | 0.0745
17 | ACTGCAAT | 0.072
18 | CCAGTCCG | 0.0707
19 | CAACGCGG | 0.0764
20 | AGGAAAGA | 0.0734
21 | GAGCGGGA | 0.0704
22 | CGTATCGA | 0.0813
23 | ACGTGCTC | 0.108
24 | AAGGGAGG | 0.0743
25 | GGGGGGGA | 0.0854

Row | Sequence | binding signal (normalized occupancy)
26 | ATATTCCG | 0.072
27 | AGCGTAAC | 0.0706
28 | CCCGTAGA | 0.0719
29 | CCCAACAG | 0.0721
30 | ACAACACA | 0.0849
31 | CCCTTTGC | 0.0731
32 | CGGCTTTC | 0.0688
33 | GCCGCGAC | 0.0664
34 | CCCAATAA | 0.0796
35 | TCGCCACA | 0.0841
36 | AATGGTGC | 0.0795
37 | ACGCGAAG | 0.0765
38 | ATCAACTC | 0.0754
39 | CTTCAAAC | 0.0723
40 | ATAATACC | 0.08
41 | CGCCTATA | 0.0793
42 | AATGGATC | 0.0762
43 | ATGCCTGC | 0.0786
44 | CAAAGCTG | 0.068
45 | ATTAGGAA | 0.0763
46 | CGGCGGAA | 0.0664
47 | AGCAAAAA | 0.075
48 | ACCGCCAG | 0.0659
49 | ACGCGAGC | 0.0807
50 | GAAAAAGC | 0.0688

Row | Sequence | binding signal (normalized occupancy)
51 | GTGAGAAC | 0.0711
52 | ATGAATAG | 0.0817
53 | AGTATTTG | 0.0723
54 | GTCGAGAA | 0.0729
55 | GACTTGAC | 0.0742
56 | ATTCTCTG | 0.0764
57 | CGCCTTCC | 0.0727
58 | GCCGAAGA | 0.0694
59 | AACGACAA | 0.0714
60 | ATCCCGCA | 0.0795
61 | GCTGAAAA | 0.0769
62 | CTTTGGCA | 0.0726
63 | GCGATCCA | 0.076
64 | CCGTGTTA | 0.0848
65 | CTTTCCAC | 0.083
66 | CCAAACTA | 0.0821
67 | CTCGTCAC | 0.0721
68 | AATACGTA | 0.0823
69 | ATAAGAAA | 0.0821
70 | CATCTCGC | 0.0758
71 | CTTAATGA | 0.0714
72 | TAATTGTA | 0.0773
73 | ACACCCGA | 0.0749
74 | CTAATGGC | 0.0693
75 | CCAGCGAG | 0.0726

Row | Sequence | binding signal (normalized occupancy)
76 | TGTATACA | 0.083
77 | ATACTGCC | 0.0738
78 | AATGATTG | 0.0785
79 | AACTTCGC | 0.0693
80 | ATCACGCA | 0.0877
81 | AACGCCTA | 0.08
82 | GAGAACAC | 0.0734
83 | CCTCGCGA | 0.0793
84 | GCTGATCC | 0.0734
85 | ATGGACTG | 0.0766
86 | AGAGACAT | 0.0797
87 | CCGACAAC | 0.0761
88 | CAACCCTG | 0.0771
89 | CATTGACG | 0.0792
90 | TCGAGAGA | 0.074
91 | GGACTCAA | 0.0719
92 | CTGGTACC | 0.0716
93 | ATCCCTCC | 0.0778
94 | AATTCGAC | 0.0706
95 | CAGGTGAA | 0.0782
96 | GAGAACCC | 0.0767
97 | GCTTATCA | 0.0771
98 | CGGTAGCA | 0.0827
99 | AGACCTCG | 0.0755
100 | CAACCGGG | 0.0697

Row | Sequence | binding signal (normalized occupancy)
101 | ACTTACAT | 0.0796
102 | CGTGAATA | 0.0879
103 | AAGGTCTC | 0.0712
104 | ACCTGTCA | 0.0782
105 | AGGTCTAA | 0.0744
106 | TCGCTCAA | 0.0752
107 | AGTGGTGG | 0.0755
108 | TCCTAACA | 0.0761
109 | AAACGCTA | 0.0723
110 | ACCAGAGG | 0.0687
111 | GCCCAATA | 0.0754
112 | GTATTTTA | 0.0782
113 | AATACCCG | 0.0718
114 | CTGAAATA | 0.073
115 | AGGCAGAC | 0.0703
116 | CTCGGCGC | 0.0731
117 | AACTTCTG | 0.0688
118 | ATCACGGC | 0.0739
119 | CATCGCCC | 0.0767
120 | CGACGCAG | 0.0678
121 | AGCAAATG | 0.0779
122 | CGTGGTGC | 0.0922
123 | ATTAAGTA | 0.0747
124 | ATTCCGTG | 0.0788
125 | ATATTGAC | 0.0831

Row | Sequence | binding signal (normalized occupancy)
126 | GACCCGCC | 0.0786
127 | CGCACGCC | 0.0878
128 | GAGCGTCA | 0.0697
129 | TATTAGGA | 0.0748
130 | AACCCGCT | 0.0757
131 | ATCCGATA | 0.0795
132 | CAAGATGA | 0.0749
133 | AATTGAGA | 0.073
134 | AATTCAAT | 0.0758
135 | CCTACGGC | 0.0854
136 | ACACCAAA | 0.0724
137 | ATGAATGA | 0.082
138 | CAACAGGA | 0.0715
139 | GCAGCGGA | 0.0705
140 | ACCTGCGA | 0.0754
141 | GACGGGAA | 0.0747
142 | CCTTACCA | 0.0772
143 | CCCTGTTA | 0.0759
144 | ACCGCTCC | 0.0657
145 | CATCTTGA | 0.077
146 | GTAACGTA | 0.077
147 | CGGAACTC | 0.0671
148 | GGAATAAA | 0.0741
149 | CCGATACA | 0.0816
150 | GGCAGCAC | 0.0769

Row | Sequence | binding signal (normalized occupancy)
151 | CTAGGTTA | 0.075
152 | ACGTAGAC | 0.0775
153 | GAAGCACC | 0.0741
154 | AGTTCACG | 0.0752
155 | ATCCTCGA | 0.0757
156 | AGGGTTAC | 0.0723
157 | CGTCGGAC | 0.0717
158 | ATCTTAGG | 0.0777
159 | ACCTTCCT | 0.0707
160 | TCATTAGA | 0.0757
161 | CGCAGAGC | 0.069
162 | CGCAAACA | 0.0718
163 | AAGCGGCC | 0.0631
164 | CATTCCCG | 0.0783
165 | AAACCGTA | 0.0713
166 | ACATATCT | 0.0819
167 | GTTGACGA | 0.0768
168 | ACAATGAT | 0.0837
169 | CCAATAAG | 0.0728
170 | AGAAAGCG | 0.0707
171 | AGGCCACG | 0.0868
172 | AAAAGAGG | 0.0763

Reference: article PMC4242493
